The source of these data is publication PMC4336329 (PLoS ONE, 2015).

Structures are written as SMILES. Hit rate of the full screen: of about 310,000 compounds, about 2,200 (0.71%) showed an effect of 50% or more. Effects have a minus sign here. The list shows a part of the results. Where a SMILES comes first, the peptide text is derived from it. The star is where a group is joined. PhAc = O=C(Cc1ccccc1)*; OBn = c1ccc(CO*)cc1

Chain of human ether-à-go-go-related gene (hERG) potassium channel (Q12809 whole entry, looked up): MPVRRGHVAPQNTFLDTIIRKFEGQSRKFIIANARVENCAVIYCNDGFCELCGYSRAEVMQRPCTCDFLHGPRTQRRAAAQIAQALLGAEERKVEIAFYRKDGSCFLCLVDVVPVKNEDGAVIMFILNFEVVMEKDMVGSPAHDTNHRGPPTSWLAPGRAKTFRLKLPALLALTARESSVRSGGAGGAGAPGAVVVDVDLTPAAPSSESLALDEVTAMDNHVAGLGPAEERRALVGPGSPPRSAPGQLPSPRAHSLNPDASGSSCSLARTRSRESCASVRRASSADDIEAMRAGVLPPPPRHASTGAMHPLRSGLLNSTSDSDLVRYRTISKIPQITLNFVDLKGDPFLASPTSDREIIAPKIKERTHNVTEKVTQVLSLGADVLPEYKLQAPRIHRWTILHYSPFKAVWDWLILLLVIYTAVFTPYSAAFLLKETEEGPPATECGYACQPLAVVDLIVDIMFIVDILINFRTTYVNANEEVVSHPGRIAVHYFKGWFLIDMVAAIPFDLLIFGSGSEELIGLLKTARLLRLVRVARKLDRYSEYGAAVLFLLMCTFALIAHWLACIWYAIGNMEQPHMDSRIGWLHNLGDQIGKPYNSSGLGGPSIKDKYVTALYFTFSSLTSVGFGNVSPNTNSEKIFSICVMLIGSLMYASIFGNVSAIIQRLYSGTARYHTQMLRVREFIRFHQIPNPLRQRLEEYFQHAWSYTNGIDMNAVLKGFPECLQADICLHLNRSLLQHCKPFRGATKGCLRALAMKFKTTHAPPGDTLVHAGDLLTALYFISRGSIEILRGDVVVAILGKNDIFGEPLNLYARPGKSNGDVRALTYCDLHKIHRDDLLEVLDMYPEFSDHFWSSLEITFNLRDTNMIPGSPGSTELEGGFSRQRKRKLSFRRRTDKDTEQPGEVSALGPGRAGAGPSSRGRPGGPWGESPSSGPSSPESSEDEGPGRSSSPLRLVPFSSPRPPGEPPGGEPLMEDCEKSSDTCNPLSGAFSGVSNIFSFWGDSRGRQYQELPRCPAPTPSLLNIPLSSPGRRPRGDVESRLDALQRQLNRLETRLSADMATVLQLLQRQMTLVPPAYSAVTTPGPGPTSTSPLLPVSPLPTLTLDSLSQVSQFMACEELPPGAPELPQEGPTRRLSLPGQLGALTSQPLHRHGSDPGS

This test concerns the target human ether-à-go-go-related gene (hERG) potassium channel (human, UniProt Q12809). The test can be described thus: primary screen, population patch clamp on CHO cells stably expressing hERG.
As for `O=C(NC(Cc1ccccc1)C(=O)O)c1ccccc1` (stereo not drawn), the “hERG current change (%, negative = inhibition) at 1uM” value worked out at 8.52%.
For `C=CCN(CC=C)C(=O)Cn1cnc([N+](=O)[O-])n1`, the “hERG current change (%, negative = inhibition) at 1uM” value is given as 2.68%.
Turning to `CCN(c1ccc(NC(=O)CN2C(=O)NC3(CCOc4ccccc43)C2=O)cc1)C(C)C` (stereo not drawn), the “hERG current change (%, negative = inhibition) at 1uM” value came out at 7.32%.
For `Cn1c(SCC(=O)Nc2ccc3c(c2)OCCO3)nnc1C(F)(F)F` the value was 2.89%.
For `CCCC(=Nc1ccccc1)C1=C(O)C(C(=O)OC)C(C)(C)CC1=O` (stereo not drawn) the value was 6.52%.
The same measure for `CC1(C)C2CCC1(CS(=O)(=O)N1CCN(c3ccc(F)cc3)CC1)C(=O)C2` (stereo not drawn): 14.5%; for `Cc1ccnc(SC2CC(=O)N(c3ccc([N+](=O)[O-])cc3)C2=O)n1` (stereo not drawn): 8.69%.
As to `Cc1ccn2c(=O)nc(SCC(=O)Nc3ccc4c(c3)OCO4)nc2c1`, the “hERG current change (%, negative = inhibition) at 1uM” value amounted to 10.1%.
`COCc1cc(N2CCOCC2)nc(SCc2ccc(Cl)cc2)n1`: the “hERG current change (%, negative = inhibition) at 1uM” value worked out at 5.58%.
The same measure for `CCOc1ccc(CN(C)C(=O)c2ccc3ccccc3n2)cc1`: 9.79%.
Regarding `O=C(NCc1ccccc1)Nc1cccn(Cc2c(F)cccc2Cl)c1=O`, the “hERG current change (%, negative = inhibition) at 1uM” value is 18.7%.
With `COc1cccc(OCc2nn3c(=O)c(-c4ccccc4)nnc3s2)c1`, the “hERG current change (%, negative = inhibition) at 1uM” value was 12.5%.
For `O=C(Nc1cccnc1)c1cccc(S(=O)(=O)N2CCCC2)c1` the value was 12.8%.
The same measure for `Cc1cc2cc(C)c3nnc(SCc4ccccn4)n3c2cc1C`: -2.68%.
Consider `Cn1c(-c2csc(-c3cccc(C(F)(F)F)c3)n2)n[nH]c1=S`, for which the “hERG current change (%, negative = inhibition) at 1uM” value is given as -1.25%.
As to `CNc1ccccc1C(C)(C)c1ccn[nH]1`, the “hERG current change (%, negative = inhibition) at 1uM” value turned out to be 7.26%.
The same measure for `CCn1c(SCc2nc3ccccc3[nH]2)nnc1-c1ccc(OC)cc1`: 7.57%; for `Cc1cc(C)n(-c2nc(Nc3ccccc3C(F)(F)F)nc(-n3nc(C)cc3C)n2)n1`: -0.563%; for `O=C(COc1ccc(Cl)cc1Br)Nc1nnc(C2CC2)s1`: 13.2%.
The same measure for `O=C(Nc1ccc(F)cc1Cl)c1ccc2c(=O)n3c(nc2c1)CCC3`: 6.83%.
`COC(=O)[C@@H]1[C@H]2C[C@H]3c4[nH]c5ccccc5c4CCN3C[C@@H]2CC[C@@H]1O`: the “hERG current change (%, negative = inhibition) at 1uM” value is listed as -21.3%.
For `Cc1ccc(C(=O)N(Cc2cccnc2)Cc2cc3cc(C)ccc3n3nnnc23)cc1` the value was 9.03%; for `COc1cc(C(=O)OCC(=O)N2CCCCC2C)ccc1OCc1c(C)noc1C` (stereo not drawn), -2.18%; for `CC1Cc2ccccc2N1C(=O)CN1CCc2ccccc2C1` (stereo not drawn), 6.34%.
For `CCN(CC)CCN1C(=O)C(=O)/C(=C(/O)c2c(C)[nH]c(C(=O)OC)c2C)C1c1ccccc1` (stereo not drawn) the value was -4.32%.
For `Cc1cccc(C)c1NC(=O)C(c1ccc([N+](=O)[O-])cc1)N(C)C(=O)c1ccccn1` (stereo not drawn) the value was -7.66%; for `O=C(NCCc1cnccn1)C1CCC(=O)N(Cc2ccc(Cl)cc2)C1` (stereo not drawn), 13.6%.
On to `CCn1cc(C(=O)Nc2ccccc2C(=O)OC)cn1`, for which the “hERG current change (%, negative = inhibition) at 1uM” value turned out to be 4.19%.
For `O=[N+]([O-])c1ccc(N/N=C/c2cccc(O)c2O)c(S(=O)(=O)N2CCOCC2)c1`, the “hERG current change (%, negative = inhibition) at 1uM” value came out at 9.48%.
For `Cc1nc(N)sc1Cc1ccc2c(c1)OCO2`, the “hERG current change (%, negative = inhibition) at 1uM” value stood at 6.67%.
In the case of `COc1cccc(NC(=O)C(Sc2nnc3ccccn23)c2ccccc2)c1` (stereo not drawn), the “hERG current change (%, negative = inhibition) at 1uM” value is reported as -1.84%.
For `CC1(C)CC(=O)C(C=Nc2ccc3cn[nH]c3c2)=C(O)C1` the value was 2.38%; for `CCCc1[nH]nc2c1C(c1ccc(OC)cc1OC)C(C#N)=C(N)O2` (stereo not drawn), 10.3%; for `CCOc1ccc(NS(=O)(=O)c2ccc(C(=O)NCCCN3CCOCC3)cc2)cc1`, 10.1%.
Regarding `O=C(CC(=O)Nc1ccccc1)Nc1ccccc1`, the “hERG current change (%, negative = inhibition) at 1uM” value is listed as 12.9%.
For `CCOc1cc(/C=N/O)ccc1OS(=O)(=O)c1ccc(C)cc1` the value was 5.49%.
With `CCCCCCCNC(=O)CN1C(=O)CSc2ccc(S(=O)(=O)N3CCOCC3)cc21`, the “hERG current change (%, negative = inhibition) at 1uM” value is listed as 3.65%.
Regarding `Cc1cccc(-c2oc3ccc(-c4ccc5c(c4)OCO5)cc3c2C#Cc2cncn2C)c1`, the “hERG current change (%, negative = inhibition) at 1uM” value is given as 17.4%.
As for `CCOC(=O)N1CCN(C(=S)NC(=O)c2ccc(Br)cc2)CC1`, the “hERG current change (%, negative = inhibition) at 1uM” value was determined as 6.5%.
Consider `CCC1(C(=O)c2ccc(C)cc2)C2c3ccccc3OC(=O)C21C(=O)O` (stereo not drawn), for which the “hERG current change (%, negative = inhibition) at 1uM” value stood at 7.96%.
In the case of `C/C(N)=C(/C#N)C(=O)COC(=O)c1cc(-c2cccc3ccccc23)nc2ccccc12`, the “hERG current change (%, negative = inhibition) at 1uM” value is 13.7%.
Turning to `Cc1ccc(C=Nc2ccccc2C(N)=O)cc1`, the “hERG current change (%, negative = inhibition) at 1uM” value is reported as 13.1%.
The same measure for `Cc1ccc(Cl)cc1N1CCN(C(=O)Cc2ccc(-n3c(=O)[nH]c4ccsc4c3=O)cc2)CC1`: 3.38%; for `O=C(N/N=C/c1ccccc1[N+](=O)[O-])C(=O)N1CCCC1`: 6.98%; for `Nc1ccc(S(=O)(=O)NC2(C(F)(F)F)NC(=O)N(c3ccc(F)cc3)C2=O)cc1` (stereo not drawn): 9.95%.
For `N#CCCN1C(=O)C2(OCCO2)c2ccccc21` the value was 13.8%; for `Cc1ccc(-n2cc(CN3CCCN(C=O)CC3)c(-c3ccc(F)cc3)n2)cc1`, 8.09%.
Regarding `Cc1cccc(N2CCN(c3nc4nonc4nc3N3CCSCC3)CC2)n1`, the “hERG current change (%, negative = inhibition) at 1uM” value turned out to be 13.3%.
On to `CN(C)CCCOc1ccc(Cl)cc1Br.O=C(O)C(=O)O`, for which the “hERG current change (%, negative = inhibition) at 1uM” value is -29.9%.
In the case of `Cc1c(C)c2cc(Cl)c(OCC(=O)NCCCn3ccnc3)cc2oc1=O`, the “hERG current change (%, negative = inhibition) at 1uM” value is 8.76%.
Take `O=C(CNS(=O)(=O)c1ccc(Br)cc1)N1CCOCC1`: the “hERG current change (%, negative = inhibition) at 1uM” value is 8.4%.
The same measure for `Cc1cc(C)nc(NCCCc2ccccc2)n1`: 12.1%; for `O=C1CC(c2ccc(Cl)c([N+](=O)[O-])c2)c2ccc3ccccc3c2N1` (stereo not drawn): -2.86%; for `Cc1ccc2nc(NC(=O)COC(=O)CSc3nc(C)cc(C)n3)sc2c1`: 5.55%.
The same measure for `CCCOC(=O)c1c(N)sc(C(=O)OCC)c1C`: 14.6%; for `CCN(Cc1ccccc1)S(=O)(=O)c1ccc2oc(C(=O)O)c(C)c2c1`: 0.741%; for `O=C(CNC(=O)Cc1ccccc1)NCC(=O)OCc1ccccc1` (PhAc-Gly-Gly-OBn): 9.63%.
`O=C(COC(=O)c1ccc(CO)cc1)Nc1ccc2ccccc2c1`: the “hERG current change (%, negative = inhibition) at 1uM” value is reported as 7.56%.
In the case of `Cc1ccc(N2CC(=O)Nc3c(oc4nc(-c5ccccc5)cc(C)c34)C2=O)cc1`, the “hERG current change (%, negative = inhibition) at 1uM” value was determined as 10.1%.
The same measure for `CCCc1cc(-c2[nH]ncc2-c2ccc3c(c2)OCCCO3)c(O)cc1O`: -4.05%; for `O=C(CSC1=NC(=O)C(c2ccccc2)C(=O)N1)Nc1ccccc1[N+](=O)[O-]` (stereo not drawn): 10.5%.
In the case of `COc1ccc(CCN2C(=O)CC(N3CCN(S(=O)(=O)c4ccccc4)CC3)C2=O)cc1OC` (stereo not drawn), the “hERG current change (%, negative = inhibition) at 1uM” value is recorded as 7.31%.
For `COCC(=O)NNC(=O)c1ccc(OC)cc1`, the “hERG current change (%, negative = inhibition) at 1uM” value was determined as 6.44%.
For `COC(=O)c1ccc2c(c1)NC1=C(C(=O)CC(C)(C)C1)C(c1ccncc1)N2` (stereo not drawn) the value was 7.34%; for `Cc1ccc(CSc2nc3ncccc3[nH]2)cc1`, 14.3%; for `COc1ccccc1OCC(=O)Nc1cc(S(=O)(=O)N2CCCCC2)ccc1N1CCCCC1`, 4.32%.
On to `COc1cc(CNCc2ccc(OC)cc2OC)cc(OC)c1.O=C(O)C(=O)O`, for which the “hERG current change (%, negative = inhibition) at 1uM” value is 3.21%.
For `Oc1ccc(N2CCN(Cc3cc4c(cc3Br)OCCO4)CC2)cc1` the value was -1.18%.
For `CC(NC(=O)c1ccco1)C(=O)OCC(=O)c1ccc(Cl)s1` (stereo not drawn) the value was 19.3%; for `COc1ccccc1NC(=O)N1CCCC1C(=O)NCc1ccc(F)cc1` (stereo not drawn), 9.38%.
For `COc1ccc2c(c1)c(CC(=O)Nc1ccccc1OC)c(C)n2C(=O)c1ccc(Cl)cc1` the value was 3.97%; for `C/C(CCc1ccc2c(c1)OCO2)=N\N=C(/N)SC1CC(=O)N(c2ccc(Cl)cc2)C1=O` (stereo not drawn), 14.7%; for `COCCCNC(=S)NNC(=S)NCCCOC`, 12.9%.
For `O=C(c1ccc(Cl)c(S(=O)(=O)N2CCOCC2)c1)N1CCCCCC1`, the “hERG current change (%, negative = inhibition) at 1uM” value amounted to 10.4%.
On to `Cc1cc(C(=O)N/N=C/c2ccc3c(c2)OCO3)c(C)n1-c1ccc(F)cc1`, for which the “hERG current change (%, negative = inhibition) at 1uM” value amounted to 10.6%.
Take `CC1Sc2ccc(Cl)cc2-c2nc(N)ncc21` (stereo not drawn): the “hERG current change (%, negative = inhibition) at 1uM” value is 9.09%.
The same measure for `COc1ccc(Cc2c(O)nc(SCC(=O)c3ccc(OC)cc3)[nH]c2=O)cc1`: 11.3%.
As for `CCCC(C(=O)NCc1ccco1)N(C(=O)CNS(=O)(=O)c1ccc(Cl)cc1)C1CCCC1` (stereo not drawn), the “hERG current change (%, negative = inhibition) at 1uM” value is listed as 0.955%.
Consider `COc1ccc2cc(CN(Cc3ccco3)Cc3nnnn3C3CCCCC3)c(=O)[nH]c2c1`, for which the “hERG current change (%, negative = inhibition) at 1uM” value is given as 3.65%.
As for `CCOCCn1c(SC(C)C(C)=O)nc2c1c(=O)[nH]c(=O)n2C` (stereo not drawn), the “hERG current change (%, negative = inhibition) at 1uM” value is given as -0.132%.
For `CC(=O)C1(c2ccccc2)CCNCC1` the value was 12.2%; for `O=C(Cc1ccc(Br)cc1)N1CCCCCC1`, 12.4%.
For `CC(C)(C)NC(=O)CSc1nc2ccccc2n1-c1ccccc1` the value was 3.25%; for `COc1cc(/C=N/NC2=NS(=O)(=O)c3ccccc32)cc(OC)c1OC`, 10.2%.
For `CCCCn1nc(NC(=O)COC)c2cc3cc(OC)ccc3nc21`, the “hERG current change (%, negative = inhibition) at 1uM” value was -5.56%.
For `CCc1cc2c(NC(Cc3ccccc3)C(=O)O)nc(C)nc2s1` (stereo not drawn) the value was 15.2%.
For `CC1=C(C(=O)Nc2cc(C)ccn2)C(c2ccc(C)cc2)C2=C(CCCC2=O)N1` (stereo not drawn) the value was -11.1%.
